{"source": "PubChem BioAssay AID651820", "about": "(National Center for Advancing Translational Sciences (NCATS), 2012)", "note": "“And” between values parts separate entries of the source, which are not always exact repeats. Identical values can stand only once. The whole screen tested about 340,000 compounds, of which about 12,000 (3.5%) were called active. Inconclusive results, whose numbers are uncertain, are shown with a selection of clear calls. Calls follow the shape of the dose curve; as a rule, active = well fitted inhibition curve with a large enough effect; inconclusive = small, poorly fitted or top-dose-only effect, or another doubt; inactive = no such curve, though single readings can be large or run the other way. Potencies of inconclusive entries are doubtful fits and often do not repeat. % is scaled to controls: 0 for no effect and ±100 for the full control effect; potency is read from the fitted curve at half-maximal effect; tags tell the direction and shape of the fitted curve.", "data": [{"experiment": "qHTS Assay for Inhibitors of Hepatitis C Virus (HCV)", "settings": "Huh7.5.1 HCVcc-Cre (HCVcc is cell-culture hepatitis C virus) infection, luciferase reporter, 44 h; activity change, negative = inhibition: at 41.8 µM (top of the series)", "method_in_brief": "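A cell-based infection assay in which seeded cells (1,000 per well) receive test compound after 4 h, are inoculated with HCVcc-Cre at approximately 0.5 moi, and are incubated 44 h before luminescence detection.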", "values": [{"smiles": "Oc1ccc(CN2CCN(c3ccccc3)CC2)c2cccnc12", "Potency": "active: 7.94 µM"}, {"smiles": "Cn1cccc1Cc1nnc(SCC(=O)Nc2ccc(F)cc2)n1-c1ccc(F)cc1", "Potency": "inconclusive: 25.1 µM [inhibitor, single point] and inconclusive: 31.6 µM [inhibitor, single point]"}, {"smiles": "COc1ccccc1NC(=S)N1CCC(C(=O)c2ccc(F)cc2)CC1", "activity change, negative = inhibition": "inactive: -14.1%"}, {"smiles": "CCOc1ccc(/C=C(\\C#N)C(=O)NC2CC2)c(OCC)c1", "Potency": "inconclusive: 12.6 µM [inhibitor, partial curve]"}, {"smiles": "O=C(NCc1ccc(F)cc1)Nc1cccc([N+](=O)[O-])c1", "Potency": "inconclusive: 31.6 µM [inhibitor, single point]"}, {"smiles": "CCOP(=O)(OCC)C(Nc1cccc(C(F)(F)F)c1)c1ccc(Br)cc1", "note": "(stereo not drawn)", "activity change, negative = inhibition": "inactive: -0.82%"}, {"smiles": "CCNc1nc(NC(C)C)nc(N(C#N)Cc2ccccc2)n1", "Potency": "inconclusive: 35.5 µM [inhibitor, partial curve, poor fit]"}, {"smiles": "COc1cccc(CN2CCc3ccc(NC(=O)CCc4ccc(C)cc4)cc3C2)c1O", "Potency": "active: 11.2 µM"}, {"smiles": "C[n+]1c(-c2ccccc2)cc2c(=Cc3ccccc3)c3ccccc3n21", "Potency": "inconclusive: 6.31 µM [inhibitor, full curve]"}, {"smiles": "CCN(CC)c1ccc(CN2CCC(C(=O)NCc3ccc(C)cc3)CC2)cc1", "Potency": "inconclusive: 10 µM [inhibitor, partial curve]"}, {"smiles": "CN(CC1CCCO1)S(=O)(=O)c1ccc(C(=O)Nc2ccc(F)cc2)cc1", "note": "(stereo not drawn)", "Potency": "inconclusive: 31.6 µM [inhibitor, single point]"}, {"smiles": "CC(C)(C)C1CCc2c(C(=O)N/N=C/c3cccs3)csc2C1", "note": "(stereo not drawn)", "Potency": "inconclusive: 2.51 µM [inhibitor, full curve]"}, {"smiles": "Cc1ccc(-c2cc(C(=O)Nc3ccc(S(=O)(=O)Nc4nccs4)cc3)c3ccccc3n2)c(C)c1", "activity change, negative = inhibition": "inactive: -4.63%"}, {"smiles": "CN(C)C(CNC(=O)CCc1nc2sc3c(c2c(=O)[nH]1)CCCC3)c1ccccc1", "note": "(stereo not drawn)", "Potency": "inconclusive: 31.6 µM [inhibitor, single point]"}, {"smiles": "CCn1c(C)cc(/C=C2\\C(=O)NC(=O)N(c3ccccc3C)C2=O)c1C", "activity change, negative = inhibition": "inactive: 10%"}, {"smiles": "CCOc1ccc(CC(=O)Nc2sc(Cc3ccccc3)cc2C(N)=O)cc1OCC", "activity change, negative = inhibition": "inactive: 17.9%"}, {"smiles": "COc1ccccc1C(=O)NCCC(=O)NCC1COc2ccccc2O1", "note": "(stereo not drawn)", "activity change, negative = inhibition": "inactive: -0.613%"}, {"smiles": "CC1=C([N+](=O)[O-])C(c2cccc(Br)c2)C2=C(N1)c1ccccc1C2=O", "note": "(stereo not drawn)", "activity change, negative = inhibition": "inconclusive: -33.7% [inhibitor]"}, {"smiles": "NC(N)=N/N=C/c1ccc(OCc2ccccc2)cc1", "Potency": "inconclusive: 15.8 µM [inhibitor, single point]"}, {"smiles": "COc1ccc(-c2ccc(SCc3cccnc3)nn2)cc1OC", "Potency": "inconclusive: 31.6 µM [inhibitor, single point]"}, {"smiles": "CC(=O)c1c(C)[nH]c(C(=O)Nc2ccc(C)cn2)c1C", "activity change, negative = inhibition": "inactive: 3%"}, {"smiles": "COCCn1c(C)cc(C(=O)COc2ccc(N(C)S(=O)(=O)c3ccc(C)cc3)cc2)c1C", "Potency": "inconclusive: 8.91 µM [inhibitor, partial curve]"}, {"smiles": "CC1CCN(c2ccc(C(=O)NCc3ccco3)cc2[N+](=O)[O-])CC1", "Potency": "inconclusive: 8.91 µM [inhibitor, partial curve]"}, {"smiles": "C=CCn1c(SCC(C)=O)nnc1-c1cc(-c2ccccc2)sc1N", "Potency": "inconclusive: 31.6 µM [inhibitor, single point]"}, {"smiles": "O=C(O)c1ccc(N/N=C/c2ccc3nccnc3c2)cc1", "activity change, negative = inhibition": "inactive: 21.4%"}, {"smiles": "CCc1cc(C(=O)N(CCCOC)c2c(N)n(Cc3ccccc3)c(=O)[nH]c2=O)sc1C", "activity change, negative = inhibition": "inconclusive: -86% [inhibitor]"}, {"smiles": "O=C(CNc1ccccc1Cl)c1ccc(Br)cc1", "Potency": "inconclusive: 17.8 µM [inhibitor, single point]"}, {"smiles": "N#Cc1c(N)n(-c2ccc(N)cc2)c2nc3ccccc3nc12", "activity change, negative = inhibition": "inactive: 2.95%"}, {"smiles": "COC(=O)C1=C(C)N(Cc2ccc(C)cc2)C(=O)/C1=C\\c1cc(OC)c(OC)c(OC)c1", "Potency": "inconclusive: 11.2 µM [inhibitor, partial curve]"}, {"smiles": "CCOCCCNC(=O)C(NC(=O)CNC(C)=O)c1ccc(C)cc1", "note": "(stereo not drawn)", "activity change, negative = inhibition": "inactive: 2.38%"}, {"smiles": "CSc1ccc(CN(C)CC(=O)NCCc2ccccc2)cc1", "Potency": "inconclusive: 31.6 µM [inhibitor, single point]"}, {"smiles": "COC(=O)c1c(NC(=O)c2c(OC)cccc2OC)sc2c1C(C(=O)OC)CC2", "note": "(stereo not drawn)", "Potency": "inconclusive: 10 µM [inhibitor, partial curve]"}, {"smiles": "COc1cc2c(cc1OC)CN(c1ccc([N+](=O)[O-])cc1C#N)CC2", "Potency": "inconclusive: 11.2 µM [inhibitor, partial curve]"}, {"smiles": "O=C(NCCNC1CCC(c2ccccc2)CC1)c1cccs1", "note": "(stereo not drawn)", "Potency": "inconclusive: 3.16 µM [inhibitor, partial curve]"}, {"smiles": "O=[N+]([O-])c1ccc(C=NN=Cc2ccc([N+](=O)[O-])cc2)cc1", "activity change, negative = inhibition": "inactive: 3%"}, {"smiles": "Cc1ccc(C2(c3noc(CN4C[C@@H](C)O[C@@H](C)C4)n3)CCCC2)cc1", "activity change, negative = inhibition": "inactive: -13%"}, {"smiles": "COC(=O)c1cccnc1SCc1ccccc1", "activity change, negative = inhibition": "inactive: 5.76%"}, {"smiles": "Cc1cc(=O)[nH]c(NN=C2CCCCC2C)n1", "note": "(stereo not drawn)", "activity change, negative = inhibition": "inactive: 22.2%"}, {"smiles": "O=c1[nH]c(Sc2ccc([N+](=O)[O-])cc2[N+](=O)[O-])nc2ccccc12", "Potency": "inconclusive: 31.6 µM [inhibitor, single point]"}, {"smiles": "CC(C)C(=O)N1CCN(c2ccccc2NC(=S)NC(=O)/C=C/c2ccco2)CC1", "activity change, negative = inhibition": "inactive: 3.42%"}, {"smiles": "O=C(c1ccc(Cl)cc1)N1CCCC(c2ccccc2)=N1", "Potency": "inconclusive: 20 µM [inhibitor, partial curve]"}, {"smiles": "CC(=O)Nc1ccc(-c2ccnc(-c3ccc(NC(C)=O)cc3)n2)cc1", "Potency": "inconclusive: 2.82 µM [inhibitor, full curve]"}, {"smiles": "COC(=O)Cn1c(CCC(=O)O)ccc1-c1ccccc1", "activity change, negative = inhibition": "inactive: 18.6%"}, {"smiles": "O=C(/C=C/c1ccc(F)cc1)NCCCN1CCN(CCCNC(=O)/C=C/c2ccc(F)cc2)CC1", "Potency": "inconclusive: 31.6 µM [inhibitor, single point]"}, {"smiles": "Cc1ccccc1C([O-])=Nc1ccc[n+](-c2nc3ccccc3nc2NS(=O)(=O)c2ccccc2)c1", "activity change, negative = inhibition": "inactive: 6.21%"}, {"smiles": "CC(C)(C)Cc1nnc(NC(=O)c2cc(-c3ccccc3)nc3ccccc23)s1", "Potency": "inconclusive: 31.6 µM [inhibitor, single point]"}, {"smiles": "Cc1csc(NC(=O)c2ccc(COc3ccccc3)o2)n1", "activity change, negative = inhibition": "inactive: -22.3%"}, {"smiles": "NC12CC3CC(C1)CC(O)(C3)C2", "activity change, negative = inhibition": "inactive: 0.0516%"}, {"smiles": "Cc1cc(C)c2c3c(sc2n1)C(c1ccccc1)C(C#N)=C(N)O3", "note": "(stereo not drawn)", "Potency": "inconclusive: 28.2 µM [inhibitor, single point]"}, {"smiles": "COc1ccccc1N1CCN(c2nc3ccccc3nc2C(C#N)C(=O)OC(C)C)CC1", "note": "(stereo not drawn)", "Potency": "inconclusive: 12.6 µM [inhibitor, partial curve]"}, {"smiles": "COCCn1c(C)cc(/C=C(\\C#N)C(=O)OCC(=O)Nc2ccc(S(N)(=O)=O)cc2)c1C", "Potency": "inconclusive: 0.501 µM [inhibitor, full curve]"}, {"smiles": "Fc1ccccc1CNC(=S)NC1CCCCC1", "Potency": "inconclusive: 25.1 µM [inhibitor, single point]"}, {"smiles": "CCC(C)c1ccc(S(=O)(=O)N2CCN(C(=O)COc3ccc4c(C)cc(=O)oc4c3)CC2)cc1", "note": "(stereo not drawn)", "Potency": "inconclusive: 8.91 µM [inhibitor, partial curve]"}, {"smiles": "O=C(CSc1ccccn1)Nc1nncs1", "activity change, negative = inhibition": "inactive: 6.41%"}, {"smiles": "Cc1nc(-c2ccccc2)sc1-c1nc(-c2ccncc2)ncc1S(=O)(=O)c1ccccc1", "Potency": "inconclusive: 31.6 µM [inhibitor, single point]"}, {"smiles": "O=C(CCS(=O)(=O)c1ccccc1)Nc1ccc(-c2nc3ccccc3s2)cc1", "Potency": "inconclusive: 0.501 µM [inhibitor, full curve, poor fit]"}, {"smiles": "O=C(C1CCN(S(=O)(=O)c2c(Cl)cccc2Cl)CC1)N1CCCCCCC1", "activity change, negative = inhibition": "inactive: 6.79% [at 8.37 µM]"}, {"smiles": "O=C(NNC(=O)c1cccs1)c1cccc(F)c1", "activity change, negative = inhibition": "inactive: -11.6%"}, {"smiles": "Cc1cc(OCC(=O)Nc2cc(S(=O)(=O)N3CCOCC3)ccc2N2CCCC2)ccc1C(C)C", "Potency": "inconclusive: 31.6 µM [inhibitor, single point]"}, {"smiles": "COc1ccc(Br)cc1CN1CCN(C(=O)c2ccco2)CC1", "activity change, negative = inhibition": "inactive: -23.7%"}, {"smiles": "CCc1nn(CC(=O)NCCCN2CCN(C)CC2)c(=O)c2cc3occc3n12", "activity change, negative = inhibition": "inactive: -4.94%"}, {"smiles": "CN(C)C(=O)c1ccc2c(c1)C1C3CCC(C3)C1C(c1ccccc1)N2", "note": "(stereo not drawn)", "Potency": "inconclusive: 25.1 µM [inhibitor, single point]"}, {"smiles": "CCN(CC)CCCn1c2c(c(SCC(=O)Nc3ccc4c(c3)OCCO4)nc1=O)CCC2", "activity change, negative = inhibition": "inactive: -23.3%"}, {"smiles": "COC(=O)Cc1ccc(NC(=O)c2ccc(C)c(C)c2)cc1", "Potency": "inconclusive: 6.31 µM [inhibitor, full curve]"}, {"smiles": "O=C(N/N=C/C=C/c1ccco1)c1cccc([N+](=O)[O-])c1", "Potency": "inconclusive: 8.91 µM [inhibitor, partial curve]"}, {"smiles": "O=C(NCCC1=CCCCC1)C1CCC(=O)N(Cc2cccc(C(F)(F)F)c2)C1", "note": "(stereo not drawn)", "Potency": "inconclusive: 31.6 µM [inhibitor, single point]"}, {"smiles": "COc1cc(C(=S)N2CCCC2)ccc1OS(=O)(=O)c1ccc(NC(C)=O)cc1", "Potency": "active: 10 µM"}, {"smiles": "N#Cc1ccc(OCC(=O)OCC(=O)c2ccccc2)cc1", "activity change, negative = inhibition": "inactive: 32.9%"}, {"smiles": "CCc1nc(N2CCN(C(=O)c3ccco3)CC2)c(C#N)c2c1COC(C)(C)C2", "Potency": "active: 22.4 µM"}, {"smiles": "Cc1cccc(Nc2nc(NCc3ccco3)c3ccccc3n2)c1", "Potency": "active: 6.31 µM"}, {"smiles": "O=C(/C=C/c1ccc(F)cc1)NC(=S)NNC(=O)c1cnccn1", "Potency": "inconclusive: 10 µM [inhibitor, partial curve]"}, {"smiles": "O=C(O)C(Cc1ccccc1)N=Cc1c(O)c2ccccc2oc1=O", "note": "(stereo not drawn)", "activity change, negative = inhibition": "inactive: 7.9%"}, {"smiles": "O=C(O)Cc1ccc2sc(-c3ccccc3)nc2c1", "activity change, negative = inhibition": "inactive: 0.391%"}]}]}
